Experimental data from patent US20080175871A1, “ELICITING IMPROVED IMMUNE RESPONSES” (THE BINDING SITE LIMITED, priority 1999, published 2008).
Each block holds one substance with its values, some of them ahead of it. No end group written: not given here.

Legend:
[1] = system: sheep; assay: Immunisation of sheep with eight-branch multi-antigenic peptides; test bleeds assessed by radial immunodiffusion (Mancini); type: in vivo; conditions: for antibody response: quality (strength) of the precipitation, correlated by the avidity of the antibody: scored as weak, moderate or strong, 500 μg prime in FCA, 200 μg boosts in FIA at six weeks
Protocol: The following peptides had been used, with some success, as eight-branch multi-antigenic-peptides for raising antibodies in sheep. Modifying the peptides by inclusion of one or more random substitutions improved the antibody response produced.
All immunisations were performed in a standard manner with 500 μg of peptide in Freund's complete adjuvant for prime and 200 μg in Freund's incomplete adjuvant for boosts at six weeks. Test bleeds were assessed by radial immunodiffusion (Mancini) so the quality (strength) of the precipitation is correlated by the avidity of the antibody (scored as weak, moderate or strong) while the diameter of the precipitation is inversely proportional to the titre of the antibody.

[2] = biological target: T1, native protein (Myoglobin) (Homo sapiens, UniProt P02144); assay: Immunohistology: binding of the raised antibodies to the native protein; conditions: antibodies raised in sheep
T1 construct: from tissue
T1 sequence (P02144 1-154): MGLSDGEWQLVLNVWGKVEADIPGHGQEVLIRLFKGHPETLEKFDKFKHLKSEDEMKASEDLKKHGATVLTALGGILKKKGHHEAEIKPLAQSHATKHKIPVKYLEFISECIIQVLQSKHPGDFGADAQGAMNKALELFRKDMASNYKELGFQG

[3] = after the first boost, one sheep
[4] = after the first boost, one sheep, diameter inversely proportional to titre

Substance: FKQWXENPNNNPIHPNLRSTV [SEQ ID NO: 15]
antibody response: quality (strength) of the precipitation [1, 3]: strong
diameter of the precipitation against the unmodified peptide [1, 4]: 9 mm

Substance: DPRFQDSSSSKAPPPSLPSPSRLP (DPRFQDSSSSKAPPPSLPSPSRLP; also: eight-branch multi-antigenic peptide; listed as Homo sapiens) [SEQ ID NO: 20, HGC#2 unmodified peptide, eight-branch multi-antigenic peptide (control), reference compound]
antibody response: quality (strength) of the precipitation, correlated by the avidity of the antibody ([1]; sheep test bleeds): no antibody response

Substance: G P N I C T T R G V S S C Q Q (GPNICTTRGVSSCQQ; cysteine pairing not given here; also: eight-branch multi-antigenic peptide; listed as Homo sapiens) [SEQ ID NO: 16, CD61 unmodified peptide, eight-branch multi-antigenic peptide (control), reference compound]
antibody response: quality (strength) of the precipitation, correlated by the avidity of the antibody ([1]; sheep test bleeds): no antibody response or, at best, weak

Substance: G P X I C T T R G V S S X Q Q [SEQ ID NO: 17]
antibody response: quality (strength) of the precipitation [1, 3]: strong
diameter of the precipitation [1, 4]: 9 mm

binding of the antibodies produced to the native protein in immunohistology [2]: bind to the native protein
Substance: QSKHPGDFGADAQGAMNKALQVXQSKHPDFGADAQGAMNKAL [SEQ ID NO: 22, Myoglobin peptide extended with inclusion of a randomised position (twenty amino acids)]
antibody response compared to unmodified / control peptide or other pool size (in words) ([1]; sheep): improved the response
diameter of the precipitation ([1]; sheep test bleeds, diameter inversely proportional to the titre of the antibody): 8.4 mm

Substance: FKQWMENPNNNPIHPNLRSTV (FKQWMENPNNNPIHPNLRSTV; also: eight-branch MAP core; listed as Homo sapiens) [SEQ ID NO: 14, CD13 unmodified peptide, eight-branch multi-antigenic peptide (control), reference compound]
mean diameter of the precipitation ([1]; even after three reboosts in two of the animals, diameter inversely proportional to titre): 11.5 mm
antibody response: quality (strength) of the precipitation ([1]; three different sheep, even after three reboosts in two of the animals): no antibody response or, at best, weak
